The labels stand for the following.
B1: TPR 5TU (parent)
chain: GGAUCUUCUCGAUCUAACAAAAAAGACAAAUCUGCCACAAAGCUUGAGAGCAUCUUCGGAUGCAGAGGCGGCAGCCUUCGGUGGCGCGAUAGCGCCAACGUUCUCAACUAUGACACGCAAAACGCGUGCUCCGUUGAAUGGAGUUUAUCAUG

Experimental findings from the RNAGym collection of RNA variant scans (doi:10.1073/pnas.2313332121) are described below.

Variants at the floor of the assay are shown more often than the library holds them.

Variants of B1 are the subject of the series. Put plainly: polymerase ribozyme fitness, log enrichment relative to wild type (log ratio); higher = more active; in vitro selection for triplet polymerase activity. The method in brief:
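A single round of triplicate in vitro selection, including frozen incubation at −7 °C, was applied to PCR-built, transcribed mutant libraries of each subunit of a heterodimeric triplet polymerase ribozyme. Illumina sequencing of input and output libraries retained genotypes with ≥10 input reads and ≥1 read per output. Fitness is the base-2 logarithm of genotype enrichment divided by wild-type enrichment, from inverse-variance-weighted replicate averages.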
For the variant GGAUCUUCUCGAUCUAACAAAAAAGACAAAUCUGCCACACAGCUUGAGAGCAUCUUCGGAUGCAGACGCGCCAGCCUUCGGUGGCGCGAUAGCGCCAGCGUUAUGAACUAUGACACGCAAAACGCGUGCUCCGUUGAAUGGAGUUUAUCAUG [A40C G67C G71C A98G C103A C105G], the “polymerase ribozyme fitness (log ratio)” value is at most -4.2.

On to GGAUCUUCUCGAUCUAACAAAAAAGACAAAUCUGCCACACAGCUUGAGAGCAUCUUCGGAUGCAGAGGCGCCAGCCUUCCGUGGCGCGAUAGCGCCAACGUUCUCAACUAUGACACGCAAAACGCUUGCUCCGUUGAAUGGAGGUUAUCAUG [A40C G71C G80C G126U U144G], for which the “polymerase ribozyme fitness (log ratio)” value was at most -4.2. For GGAUCUUCUCGAUCUAACAAAAAAGACAAAUCUGCCACACAGCUUGAGAGCAUCUUCGGAUACAGAGGCGGCCGCCUCCGGUGGCGCGCUAGCGCCAUCGUUCUCAACGAUGACACGCAAUACGCGUGCUCCUUUUAAUGGAGUUUAUCAUG [A40C G62A A73C U78C A89C A98U U109G A121U G133U G136U], the “polymerase ribozyme fitness (log ratio)” value was at most -4.2. For the variant GGAUCUUCUCGAUCUAACAAAAAAGACAAAUCUGCCACACAGCUUGAAAGCAUCUUCGGAUGCAGAGGCGGCAGCCUUCGGUGGCGCGUUAGCGGCAACGUUCCCCACUAUGACACGCAAAACGCGUGCUCCGUUGAAUGGAGUUUAUCAUG [A40C G48A A89U C95G U104C A106C], the “polymerase ribozyme fitness (log ratio)” value was at most -4.2. With GGAUCUUCUCGAUCUAACAAAAAAGACAAAUCUGCCACAGAGCUUGAGAGCCUCUUCGGAUGCAGAGGCGGCAGCCUUCGGUGGCGCGAUUGCGCCAACGUUCUCAACUAUGACACGCAUAACGCGUGCUCCGUUGAAUGGAGUUUAUCAUG [A40G A52C A91U A120U], the “polymerase ribozyme fitness (log ratio)” value was at most -4.2. With GGAUCUUCUCGAUCUAACAAAAAAGACAAAUCUGCCACACAGCUUGAGAGCAUCUUCGGAUGCAGAGGCGGCAGCCUGCGGUGUCGCUAUAGCGCCAACGUUCUCAACUAUGACACGCAAAACGCGUGCUCCGUUGAAUGUAGUUUAUCAUG [A40C U78G G84U G88U G141U], the “polymerase ribozyme fitness (log ratio)” value is at most -4.2. With GGAUCUUCUCGAUCUAACAAAAAAGACAAAUCUGCCACACAUCUUGAGAGCAUCUUCGGAUGCAGAGGCGGCAGCCUUCGGUGGCGGGAUAGCGCCAACGUUCUCAACUAUGACACCCAAAACGCGUGCUCCGUUGAAUGGAGUUUAUCAUG [A40C G42U C87G G117C], the “polymerase ribozyme fitness (log ratio)” value is at most -4.2.

Regarding GGAUCUUCUCGAUCUAACAAAAAAGACAAAUCUGCCACACAGCUUGAGAGCAACUUCGGAUGCAGGGGCGGCAGCCUUCGGUGGUUCGAUAGCGCCAACGUUGUCAACUAUGAGACGCAAAACGCGUGCUCCGUUGAAUGGACUUUAUCAUG [A40C U53A A66G C85U G86U C103G C114G G143C], the “polymerase ribozyme fitness (log ratio)” value is at most -4.2. Consider GGAUCUUCUCGAUCUAACAAAAAAGACAAAUCUGCCACACAGCUUGAGAGCAUCUUCGGAAGCAGAGGCGGCAGCAUUCGGUGGCGCGAUAGCGCCAACGUUCUCAACUAUGACACGCAAAACGCGUGCUCCGUUGAAUGGAGUUUAUCAUG [A40C U61A C76A], for which the “polymerase ribozyme fitness (log ratio)” value was at most -4.2.

In the case of GGAUCUUCUCGAUCUAACAAAAAAGACAAAUCUGCCACACAGCUUGAGAGCAUCUUCGGAUGCAGAGGCGGCAGCCUUCGGUGGCGCCAUAGCGCCAACGUUCUCAACUAUGACACGAAAAACGCGUGCUCCGUUGAAUGGAGUUUGUCAUG [A40C G88C C118A A147G], the “polymerase ribozyme fitness (log ratio)” value was at most -4.2.

As to GGAUCUUCUCGAUCUAACAAAAAAGACAAAUCUGCCACACAGCUAGAGAGCAUUUUCGGAUGCAGAGGCGGCAGCCUUCGGUGGCGCGAUAGCGCCAACGUUCUCAACUAUGACACGCAAAACGCGUGCUCCGUUGAAUGGAGUUUAUCAUG [A40C U45A C54U], the “polymerase ribozyme fitness (log ratio)” value was at most -4.2.

For GGAUCUUCUCGAUCUAACAAAAAAGACAAAUCUGCCACACAGCUUGAGAGCAUCUUCGGAUGCAGAGGCGGCAGCCCUCGGUGGCGCGAUAGCGCCAACGUUCUCAACUAUGACAAGCAAAACGUGUGCUCCGUUGAAUGGAGUUUAUCAUG [A40C U77C C116A C125U], the “polymerase ribozyme fitness (log ratio)” value was at most -4.2. Turning to GGAUCUUCUCGAUCUAACAAAAAAGACAAAUCUGCCACACAGCUUGAGACCAUCUUCGGAUGCAGAGGCGGCAGCCUUCGGCGGAGCGAUAGCGCCAACGAUCUCCACUAUGACUCGCAAAACGCGUGCUCCGUUGAAUGGUGUUUAUCAUG [A40C G50C U82C C85A U101A A106C A115U A142U], the “polymerase ribozyme fitness (log ratio)” value is at most -4.2. The figure for GGAUCUUCUCGAUCUAACAAAAAAGACAAAUCUGCCACACAGCUUAAGAGCAUCAUCGGAUGCAGAGACGGCAGCCUUCGGUGGCAUGAUAGCGCCAACGUUCUCAUCUAUGACACGCAAAACGCGUGCUCCGUUGAAUGCAGUUUAUCAUG [A40C G46A U55A G68A G86A C87U A107U G141C] is at most -4.2; for GGAUCUUCUCGAUCUAACAAAAAAGACAAAUCUGCCACACAGCUUGAGAGCAUCUUCGAAUGCAGAGGCGGCAGCCUUCGGUGGCGCGAUAGCUCCAACGUUCUCAACUAUGACACGCAAAACGCGUGCUCCGUUGAAUUGAGUUUAUGAUG [A40C G59A G94U G140U C149G] it is at most -4.2. As to GGAUCUUCUCGAUCUAACAAAAAAGACAAAUCUGCCACAGCGCUUGAGAGCAUCUUAGCAUGCAGAGGCGGCAGCCUUCGGUGGCGCCAUAGCGCCAACGGUCUCAACUAUGACUCGCAAAACGCGUGCUCCGUCGAAUGGAGUUUAUCAUC [A40G A41C C57A G59C G88C U101G A115U U135C G152C], the “polymerase ribozyme fitness (log ratio)” value was at most -4.2. The figure for GGAUCUUCUCGAUCUAACAAAAAAGACAAAUCUGCCACACAGCUUGAGAGCAUCUUCGGAUGCAGAGGCGGCAGCCUUCGGUGGCGCGAUAGCGCCAACGUUCUCAACUAUGACACGCAAAACGCGUGCUCCGGUGAAUGGGGUAUAUCAUG [A40C U134G A142G U145A] is -3.46.

For the variant GGAUCUUCUCGAUCUAACAAAAAAGACAAAUCUGCCACACAGCUAGAGAGCAUCUUCGGAUGCAGUGGCGGCAGCCUUCGGUAGCGCUAUAGCGCCCACGUUCUCAACUAUGACACGCAAAUCGCGUGCUCCGUUGAUUGGAGUUUAUCAUG [A40C U45A A66U G83A G88U A97C A122U A138U], the “polymerase ribozyme fitness (log ratio)” value was at most -4.2. As for GGAUCUUCUCGAUCUAACAAAAAAGACAAAUCUGCCACACAGCUUGAGAUCAUCUUCGGAUGCAGAGGCGGCAGCCUUCGGUGGUGCGAUAGCGCCAACGUUCUCAACUAUGACACGCAAAACGCGUGCUCCGUUGAAUGGAGUUUAUCAUG [A40C G50U C85U], the “polymerase ribozyme fitness (log ratio)” value was 0.316.
